Reference: PubChem BioAssay AID1466 (National Center for Advancing Translational Sciences (NCATS), 2008)
About 10 (0.005%) of roughly 200,000 compounds were called active. Inconclusive means that the source gave no clear call. Such entries were picked first, then a sample of the others. Calls come from the whole dose curve; as a rule, active = well fitted inhibition curve with a large enough effect; inconclusive = small, poorly fitted or top-dose-only effect, or effect the other way, or another doubt; inactive = no such curve, though single readings can be large or run the other way. Potencies of inconclusive entries are left out as doubtful fits.

target: Lysosomal alpha-glucosidase (Homo sapiens) (UniProt P10253); experiment: qHTS Assay for Inhibitors of Human alpha-Glucosidase as a Potential Chaperone Treatment of Pompe Disease; conditions: purified human GAA, 4-MU-alpha-glucoside fluorescence; activity change, negative = inhibition: at 76.9 µM (top of the series) unless noted;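 for activity change, negative = inhibition: plate controls were uninhibited enzyme wells for no effect and no-enzyme background for full effect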
How it was run: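 Fluorogenic assay: 4 nM human alpha-glucosidase with 400 uM 4-methylumbelliferyl-alpha-D-pyranoside in 50 mM citrate/phosphate, 0.005% Tween-20, pH 5.0, 20 min at room temperature. Compounds tested up to 77 uM; AC50 from Hill fits.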
Potency is the fitted concentration of half-maximal effect; tags give direction and shape of the fitted curve.

Row | SMILES | activity change, negative = inhibition | Potency
1 | Cc1ccc(C2=NN=C(NC(=O)CSc3nncn3C)SC2)cc1 | inconclusive: 19.8% [activator] | 
2 | Cc1ccccc1Cn1cc(/C=N/n2cnnc2)c2ccccc21 |  | inconclusive [inhibitor, single point]
3 | CC(=O)Nc1ccc(CN2CCN(c3cccc(C(F)(F)F)c3)CC2)cc1 | inconclusive: -19.6% [inhibitor] | 
4 | Cc1nnc(NC(=O)CCn2cnc3ccccc3c2=O)s1 | inconclusive: 21.1% [activator] | 
5 | COC(=O)c1cc(NCc2ccc3c(c2)OCO3)ccc1N1CCOCC1 | inactive: -7.5% | 
6 | O=C(Nc1ccc(F)cc1F)Nc1ccc(F)cc1F | inconclusive: 17.7% [activator] | 
7 | Fc1cc(Cl)ccc1NC(=S)NCCN1CCOCC1 |  | inconclusive [inhibitor, single point]
8 | O=c1cc(N2CCCCC2)c2ccccc2o1 | inconclusive: 9.21% [activator] | 
9 | O=c1[nH]c2ccccc2nc1Cc1ccccc1 |  | inconclusive [activator, partial curve]
10 | COC(CNC(=O)c1ccc2c(c1)ncn2-c1ccc(F)cc1F)OC | inconclusive: 16% [activator] | 
11 | Cc1ccc(C(=O)Nc2ccc(C(=O)N3CCCCC3C)cc2)cc1 (stereo unspecified) |  | inconclusive [inhibitor, single point]
12 | CCC(CO)Nc1ccc(-c2nn(C)c(=O)c3ccccc23)cc1[N+](=O)[O-] (stereo unspecified) |  | inconclusive [inhibitor, single point]
13 | Cc1ccc(S(=O)(=O)/N=C/N(C)C)cc1 |  | inconclusive [inhibitor, full curve, poor fit]
14 | O=C(Cn1cc[n+](CC(=O)c2ccccc2)c1)c1ccccc1 | inconclusive: 15.3% [activator] | 
15 | CSc1c(SCc2ccccc2)cnn(Cc2ccccc2)c1=O |  | inconclusive [inhibitor, single point]
16 | c1ccc(Nc2nc(N3CCCC3)nc(N3CCCC3)n2)cc1 | inconclusive: -15.7% [inhibitor] | 
17 | FC(F)(F)c1nnc(-c2ccccc2)nc1Oc1ccccc1 | inconclusive: -15.7% [inhibitor] | 
18 | Cc1ccc(C=Nc2ccccc2C(N)=O)cc1 |  | inconclusive [activator, single point]
19 | COc1ccc(CC2(CO)CCN(Cc3cnc(-c4ccccc4C)nc3)CC2)cc1 |  | inconclusive [inhibitor, partial curve, poor fit]
20 | Oc1ccccc1Nc1nc(NCC2CCCO2)c2ccccc2n1 (stereo unspecified) |  | inconclusive [inhibitor, single point]
21 | COc1ccc(OC)c(-c2cc(C(=O)Nc3ccc(F)cc3F)no2)c1 | inconclusive: 16.6% [activator] | 
22 | O=C(CSc1nccc(=O)[nH]1)N1N=C2/C(=C/c3ccco3)CCCC2C1c1ccco1 (stereo unspecified) | inactive: -1.75% | 

Row | SMILES | activity change, negative = inhibition | Potency
23 | Cc1ccc(NC(=O)CNc2ccc(Cl)c(Cl)c2)cc1S(=O)(=O)N(C)C |  | inconclusive [inhibitor, partial curve]
24 | Fc1ccc(CNC(=S)Nc2ccc(Cl)cc2)cc1 |  | inconclusive [inhibitor, single point]
25 | Cc1cccc(Nc2nnc(SCC(=O)Nc3ccc(C(=O)O)cc3)s2)c1 |  | inconclusive [inhibitor, single point]
26 | CC1CN(c2nc3ccccn3c(=O)c2C=O)CC(C)O1 (stereo unspecified) |  | inconclusive [inhibitor, partial curve, poor fit]
27 | CC(O)CN(C)CC/C=C1/c2ccccc2CSc2ccccc21 (stereo unspecified) | inconclusive: -16.1% [inhibitor] | 
28 | COc1ccc(/C(C)=N/NC(=O)c2ccccc2OCc2ccccc2)c(OC)c1 |  | inconclusive [inhibitor, single point]
29 | COc1ccc(-c2cc(N3C(=O)Nc4ccccc4N3O)n[nH]2)cc1OC |  | inconclusive [inhibitor, single point]
30 | Cc1ccc2cc(/C=N/NC(=O)c3ccc(F)cc3)c(Cl)nc2c1 |  | inconclusive [inhibitor, single point]
31 | Cc1ccc(NC(=O)c2[nH]cnc2C(=O)NN)cc1 |  | inconclusive [inhibitor, single point]
32 | Cn1cnnc1SCCNS(=O)(=O)c1ccccc1 |  | inconclusive [inhibitor, full curve, poor fit]
33 | O=C(O)CCc1ccc(-c2ccccc2)n1CC1CCCO1 (stereo unspecified) |  | inconclusive [activator, partial curve]
34 | COc1ccc(-c2cc(=Nc3ccc(C(=O)O)cc3)c3cc(C)ccc3o2)cc1 |  | inconclusive [activator, partial curve]
35 | CC(=O)Nc1ccc(C(=O)OCC(=O)c2ccc(C)c([N+](=O)[O-])c2)cc1 |  | inconclusive [inhibitor, partial curve]
36 | Cc1ccc(CNC(=O)C2CCCN(c3nc4ccsc4c(=O)s3)C2)cc1 (stereo unspecified) | inconclusive: 15.6% [activator] | 
37 | CCOC(=O)C1=C(C)N(CC)C(=S)NC1c1ccc(Cl)cc1 (stereo unspecified) |  | inconclusive [inhibitor, single point]
38 | CCOCc1[nH]c(=S)[nH]c(=O)c1Cc1ccc(OCC(C)C)cc1 |  | inconclusive [activator, partial curve, poor fit]
39 | NC(=O)c1nsc(C(=O)N(c2ccc(Cl)cc2)C(C(=O)NCC2CCCO2)c2cccs2)c1N (stereo unspecified) |  | inconclusive [activator, single point]
40 | COC(=O)c1ccc(CSc2cc(C)c3cc(C)cc(C)c3n2)o1 | inactive: 4.78% | 
41 | CCOc1ccc(N2C(=O)C(CC(=O)Nc3ccc(F)cc3)N(Cc3ccccn3)C2=S)cc1 (stereo unspecified) |  | inconclusive [inhibitor, partial curve, poor fit]
42 | O=C(NCc1ccco1)c1ccccc1-c1nc(-c2ccc(F)cc2)no1 |  | inconclusive [inhibitor, full curve]
43 | COC(=O)c1cc(=O)c2cccc(OC)c2[nH]1 |  | inconclusive [activator, single point]
44 | N=c1oc2ccc3ccccc3c2cc1-c1nnc2n1CCCCC2 |  | inconclusive [activator, partial curve]

Row | SMILES | activity change, negative = inhibition | Potency
45 | C#CCOCCOCCOCCNc1nc(N2CCOCC2)nc(N2CCN(C(=O)Cn3cc(CCCN=C(N)N)nn3)CC2)n1 |  | inconclusive [inhibitor, full curve, poor fit]
46 | Cc1ccc(C(=O)N2CCN(c3cccc(Cl)c3)CC2)cc1C | inconclusive: -18.2% [inhibitor] | 
47 | Cc1cccc(NC(=O)C2CCCC2)c1 | inactive: 2.83% | 
48 | CCn1cc(C(=O)N2CCCC2)c(=O)c2cc(S(=O)(=O)N(C)C)ccc21 |  | inconclusive [inhibitor, single point]
49 | CCCC(=O)CN1C(=O)C2(OCCO2)c2ccccc21 |  | inconclusive [inhibitor, full curve, poor fit]
50 | CCC(=O)N(c1ccc(C(=O)O)cc1)c1nc(-c2ccc(OC)cc2)c(C)s1 |  | inconclusive [inhibitor, single point]
51 | Nc1nnc(N2CCCCC2)s1 |  | inconclusive [inhibitor, single point]
52 | O=C(COc1ccc(Br)cc1)N1CCN(c2ccc([N+](=O)[O-])c(N3CCCCC3)c2)CC1 |  | inconclusive [inhibitor, partial curve, poor fit]
53 | CCCCCCc1cc2cc(C(=O)Nc3ccccc3)c(=O)oc2cc1O |  | inconclusive [activator, partial curve]
54 | CCOC(=O)NN1C(=O)c2ccccc2NC1c1ccccn1 (stereo unspecified) |  | inconclusive [activator, single point]
55 | Cc1c(C)n(CC(O)CNc2ccccc2)c2ccccc12 (stereo unspecified) | inconclusive: 6.1% [activator] | 
56 | COc1ccc2c(c1)c(/C=N/Nc1nc3ccccc3[nH]1)c(C)n2C | inconclusive: -16.2% [inhibitor] | 
57 | COc1ccc(OC)c(N=C2C(=O)Nc3ccccc32)c1 | inconclusive: 15.4% [activator] | 
58 | Cc1ccc(N(Cc2ccco2)C(=O)c2cccc(S(=O)(=O)N(C)C)c2)cc1 |  | inconclusive [inhibitor, full curve, poor fit]
59 | COc1ccccc1NC(=O)c1ccc(NC(=O)CN2C(=O)CN(C)C2=O)cc1 | inconclusive: -15.1% [inhibitor] | 
60 | CCOC(=O)NC(=O)C(=CNc1cccc(C)c1)C(=O)NC(=O)OCC |  | inconclusive [inhibitor, partial curve, poor fit]
61 | COc1ccc(N2CCN(C(c3nnnn3C3CCCC3)C(C)C)CC2)cc1 (stereo unspecified) | inconclusive: 11.9% [activator] | 
62 | COC(=O)C1=CN(CC2CCCO2)C=C(C(=O)OC)C1c1ccsc1 (stereo unspecified) |  | inconclusive [activator, partial curve]
63 | O=c1c2nnn(Cc3ccc(Cl)cc3)c2ncn1Cc1ccc(F)cc1 |  | inconclusive [inhibitor, single point]
64 | Cc1ccccc1CCN(C(=O)CN1C(=O)c2ccccc2S1(=O)=O)C(C(=O)NCC1CCCO1)c1ccncc1 (stereo unspecified) |  | inconclusive [inhibitor, single point]
65 | COC(=O)CC(NC(=O)c1ccco1)c1ccc(C(C)C)cc1 (stereo unspecified) | inconclusive: -15.5% [inhibitor] | 
66 | Nc1c(Cl)cc(Cl)cc1C(=O)OCC(=O)NC1CC1 |  | inconclusive [activator, partial curve]
